Reference: PubChem BioAssay AID1476 (National Center for Advancing Translational Sciences (NCATS), 2009)
The whole screen tested about 200,000 compounds, of which about 4,500 (2.2%) were called active. The shares of active, inactive and inconclusive entries below differ from those in the screen. Calls follow the shape of the dose curve; as a rule, active = well fitted inhibition curve with a large enough effect; inconclusive = small, poorly fitted or top-dose-only effect, or effect the other way; inactive = flat fitted curve, though single readings scatter. Where the call is inconclusive, the potency comes from a doubtful curve fit.
Also: nearly all actives have a fitted effect of over 40% in size.
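For max response, negative = inhibition in this document: plate controls were enzyme without inhibitor for no effect and buffer without enzyme for full effect.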
Potency is read from the fitted curve at half-maximal effect; tags tell the direction and shape of the fitted curve.

These compounds were tested against Cruzipain (Trypanosoma cruzi) (UniProt P25779) (assay: qHTS Assay for Promiscuous and Specific Inhibitors of Cruzain (without detergent)). Conditions: purified cruzain, Z-FR-AMC fluorescence, no detergent.
Sequence of UniProt P25779 (P25779 whole entry, looked up): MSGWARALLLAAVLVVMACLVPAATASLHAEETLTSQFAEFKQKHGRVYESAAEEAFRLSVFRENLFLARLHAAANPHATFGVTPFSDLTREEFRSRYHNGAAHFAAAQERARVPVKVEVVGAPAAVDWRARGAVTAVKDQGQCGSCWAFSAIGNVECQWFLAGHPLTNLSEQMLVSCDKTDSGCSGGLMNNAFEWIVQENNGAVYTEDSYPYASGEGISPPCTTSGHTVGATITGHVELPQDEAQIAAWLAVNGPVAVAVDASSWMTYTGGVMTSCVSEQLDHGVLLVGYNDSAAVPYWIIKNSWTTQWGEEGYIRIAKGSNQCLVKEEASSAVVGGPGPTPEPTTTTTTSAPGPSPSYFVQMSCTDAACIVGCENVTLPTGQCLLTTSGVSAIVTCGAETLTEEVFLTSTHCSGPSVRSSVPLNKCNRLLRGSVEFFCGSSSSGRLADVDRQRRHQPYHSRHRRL
Outline: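 Purified cruzain at 1.5 nM, pre-incubated 15 min with compound at room temperature in 100 mM sodium acetate pH 5.5, 5 mM DTT, 0.00005% Triton X-100. Reaction started with 2 uM Z-FR-AMC; AMC fluorescence increase over 60 s gives rate.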
For `O=C(C1=C[C@@H]2[C@H]3C(=O)N(c4ccc(Cl)cc4)C(=O)[C@H]3[C@@H](C(=O)c3ccc(Cl)cc3)N2C=C1)c1ccccc1`, the Potency was active: 7.94 µM. In the case of `O=C(/C=C1\NC2(CCCC2)Cc2ccccc21)C(=O)N/N=C/c1ccccc1O`, the Potency is reported as active: 25.1 µM. With `N#Cc1c(NC(=O)CSc2nc(-c3ccco3)cc(C(F)(F)F)n2)sc2c1CCCC2` the Potency was inconclusive: 39.8 µM [inhibitor, single point]. With `CCN1CC=C2C(C#N)=C(N)C(C#N)(C#N)C(c3cc(Cl)ccc3Cl)C2C1` (stereo not given) the Potency was inconclusive: 39.8 µM [inhibitor, single point]. For `COc1ccc(Cl)cc1NC(=O)c1cc2ccc3ccc(C)[nH]c3c2n1`, the Potency was inconclusive: 39.8 µM [inhibitor, single point]. With `COc1ccc(/C=C(/NC(=O)c2ccccc2)C(=O)N/N=C/c2sccc2C)cc1` the Potency was inconclusive: 39.8 µM [inhibitor, single point]. In the case of `Cc1ccc(N2C(=O)C3C(c4ccccc4)(C2=O)C3(c2ccccc2)c2ccccc2)cc1` (stereo not given), the Potency is reported as active: 25.1 µM. For `COc1ccccc1CNC(=O)CCCn1nc(C)c2sc3ccccc3c2c1=O`, the Potency was active: 10 µM. For `CCC(C)OC(=O)c1[nH]c2c(c1C)C(=O)CC(c1ccc(N(C)C)cc1)C2` (stereo not given), the Potency was inconclusive: 31.6 µM [inhibitor, single point]. For `O=C(/C=C/c1ccc2c(c1)OCO2)Nc1nc(-c2ccccc2)cs1`, the Potency was inconclusive: 39.8 µM [inhibitor, single point]. For `COc1cccc(NC(=O)C2CCCN(c3nnc(-n4c(C)ccc4C)s3)C2)c1` (stereo not given), the max response, negative = inhibition was inactive: -1.44%. For `O=C(CSc1nnc(SCc2cccc3ccccc23)s1)N/N=C/c1c[nH]c2ccccc12`, the max response, negative = inhibition was inactive: 1.49%. In the case of `Cc1cccc(CNC(=O)CCCN2C(=O)CCn3nc(-c4cn(C)c5ccccc45)cc32)c1`, the Potency is reported as inconclusive: 25.1 µM [activator, partial curve]. For `Cc1ccc(OCC(=O)NNC(=O)c2cc3ccccc3o2)cc1`, the Potency was inconclusive: 39.8 µM [inhibitor, single point]. `Cn1cc(-c2cc3n(n2)CCC(=O)N3CC(=O)O)c2ccccc21` was tested, and the max response, negative = inhibition was inactive: 11.4%. `COCCn1c(C)cc(O)c(C(c2ccc(C)cc2)N2CCCCC2)c1=O` (stereo not given) was tested, and the Potency was inconclusive: 39.8 µM [activator, single point]. With `C#CC(C)(CC)NC(=O)c1cc2c(n(-c3ccc(Cl)cc3)c1=O)CC(C)(C)CC2=O` (stereo not given) the Potency was inconclusive: 39.8 µM [activator, single point]. In the case of `Cc1ccc(NC(=O)COC(=O)C(NS(=O)(=O)c2ccc(Cl)cc2)C(C)O)c(Br)c1` (stereo not given), the Potency is reported as inconclusive: 39.8 µM [activator, single point]. In the case of `COc1ccccc1N(CC(=O)Nc1ccc(C)c(Cl)c1)S(=O)(=O)c1ccc(C)cc1`, the Potency is reported as inconclusive: 31.6 µM [inhibitor, single point]. `Cc1ccc(C(=O)CCC(=O)Nc2ccc(Cl)c(S(=O)(=O)Nc3cccc(Cl)c3)c2)cc1` was tested, and the Potency was inconclusive: 39.8 µM [inhibitor, single point]. For `Cc1ncc(CO)c2cc(C(N)=O)c(=Nc3ccccc3)oc12`, the max response, negative = inhibition was inactive: 2.71%. `N#Cc1c(-c2ccccc2)nc(-c2ccccc2)[nH]c1=O` was tested, and the Potency was inconclusive: 39.8 µM [inhibitor, single point]. `COc1cc2nc(SCC(=O)c3ccc(Br)cc3)n3nc(C)nc3c2cc1OC` was tested, and the Potency was inconclusive: 15.8 µM [activator, partial curve]. With `COc1ccccc1[C@@H]1C(c2ccc(F)cc2)=NN(c2ccc(Br)cc2)[C@H]1C(=O)N1CCOC1=O` the Potency was active: 25.1 µM. `N#CC(C(=O)NC1CCCCC1)c1nc2ccccc2nc1N1CCN(c2ccc(F)cc2)CC1` (stereo not given) was tested, and the Potency was inconclusive: 25.1 µM [inhibitor, single point]. `S=C(Nc1ccc2snnc2c1)N1CCN(c2ccccn2)CC1` was tested, and the Potency was inconclusive: 39.8 µM [inhibitor, single point]. In the case of `CCOC(=O)c1c(C)nc2sc3c(=O)n(-c4ccc(C(C)=O)cc4)cnc3c2c1-c1ccc(OC)cc1`, the Potency is reported as inconclusive: 25.1 µM [activator, partial curve]. With `Cc1ccc(N2C(=O)c3oc4cc(C)c(C)cc4c(=O)c3C2c2cccc(O)c2)nc1` (stereo not given) the max response, negative = inhibition was inactive: 2.35%. `Cc1cc([N+](=O)[O-])ccc1NC(=S)NC(=O)C(c1ccccc1)c1ccccc1` was tested, and the Potency was inconclusive: 31.6 µM [inhibitor, single point]. For `CCOC(=O)c1c(Nc2nc(C)c(C(=O)NC)s2)sc(C)c1C`, the Potency was inconclusive: 31.6 µM [activator, single point]. For `Cc1ccc(CNc2nc(N)c([N+](=O)[O-])c(Nc3ccc(F)cc3)n2)cc1`, the Potency was active: 15.8 µM. For `Cc1cccn2c(Nc3ccc4c(c3)OCCO4)c(-c3ccc(Br)o3)nc12`, the Potency was inconclusive: 31.6 µM [inhibitor, single point]. With `Cc1cn([C@H]2C[C@H](O)[C@@H](COC(N)=O)O2)c(=O)[nH]c1=O` the max response, negative = inhibition was inactive: -6.22%. In the case of `CCOC(=O)C1C(C)=C(Nc2ccc(OC)cc2)C(=O)N1c1ccc(OC)cc1` (stereo not given), the Potency is reported as active: 12.6 µM. `CCN(C(=O)Cn1c(SCC(=O)NCc2ccccc2)nc2ccccc21)c1cccc(C)c1` was tested, and the Potency was inconclusive: 20 µM [activator, single point]. `O=C(NCc1ccccc1Cl)c1cnc(N2CCCCC2)c2ccccc12` was tested, and the max response, negative = inhibition was inactive: 4.13%. `Nc1c(S(=O)(=O)c2cccs2)c2nc3ccccc3nc2n1/N=C/c1cccc(O)c1` was tested, and the Potency was inconclusive: 10 µM [inhibitor, single point]. With `Cc1ccccc1S(=O)(=O)Nc1nc2ccccc2nc1N1CCc2ccccc2C1` the Potency was inconclusive: 31.6 µM [inhibitor, single point]. `O=C(NCC1COc2ccccc2O1)c1cn(Cc2ccc(F)cc2)nn1` (stereo not given) was tested, and the Potency was inconclusive: 39.8 µM [inhibitor, single point]. With `O=C(CN(c1cccc(C(F)(F)F)c1)S(=O)(=O)c1ccc(Cl)c([N+](=O)[O-])c1)NCc1ccc(F)cc1` the Potency was inconclusive: 31.6 µM [inhibitor, single point].
